# Experimental data taken from a collection of fitness landscapes (doi:10.1126/science.1257360).
# The list shows a part of the results.
# B1: PhoQ; a variant is named by its letters at X, in order, P23837 (parent)
# chain: MKKLLRLFFPLSLRVRFLLATAAVVLVLSLAYGMVALIGYSVSFDKTTFRLLRGESNLFYTLAKWENNKLHVELPENIDKQSPTMTLIYDENGQLLWAQRDVPWLMKMIQPDWLKSNGFHEIEADVNDTSLLLSGDHSIQQQLQEVREDDDDAEMTHSVAVNVYPATSRMPKLTIVVVDTIPVELKSSYMVWSWFIYVLSANLLLVIPLLWVAAWWSLRPIEALAKEVRELEEHNRELLNPATTRELTSLVRNLNRLLKSERERYDKYRTTLTDLTHSLKTPLXXLQXXLRSLRSEKMSVSDAEPVMLEQISRISQQIGYYLHRASMRGGTLLSRELHPVAPLLDNLTSALNKVYQRKGVNISLDISPEISFVGEQNDFVEVMGNVLDNACKYCLEFVEISARQTDEHLYIVVEDDGPGIPLSKREVIFDRGQRVDTLRPGQGVGLAVAREITEQYEGKIVAGESMLGGARMEVIFGRQHSAPKDE
# Variants of: B1
# Assay: enrichment ratio after two sorts for PhoP signalling (ratio (wild type AVST 3.29)); higher = more functional
# Settings: with PhoP (E. coli)
row,Variant,enrichment ratio
1,WITG,≤ 0.25
2,WQSP,≤ 0.25
3,GAPH,≤ 0.25
4,LDFD,≤ 0.25
5,HHYS,≤ 0.25
6,NWMC,≤ 0.25
7,WNQH,≤ 0.25
8,EQWG,≤ 0.25
9,GLYN,≤ 0.25
10,QAHY,≤ 0.25
11,MGSM,8.17
12,MNCM,≤ 0.25
13,IQSI,≤ 0.25
14,GQVG,1.55
15,GGNP,≤ 0.25
16,NHHL,≤ 0.25
17,DNFM,≤ 0.25
18,ICCD,≤ 0.25
19,QHDP,≤ 0.25
20,SMVT,2.85
21,FYHT,≤ 0.25
22,ETNH,≤ 0.25
23,PKFL,≤ 0.25
24,YMIY,≤ 0.25
25,GWVL,≤ 0.25
26,LWHW,≤ 0.25

row,Variant,enrichment ratio
1,RFLI,≤ 0.25
2,VNRC,≤ 0.25
3,DGMH,≤ 0.25
4,WCYS,≤ 0.25
5,DQVE,≤ 0.25
6,TDYW,≤ 0.25
7,IPLM,≤ 0.25
8,TQVS,8.82
9,WNPS,≤ 0.25
10,LNQH,≤ 0.25
11,RPQV,≤ 0.25
12,TQGN,4.74
13,YHSS,≤ 0.25
14,FNRI,≤ 0.25
15,YWIE,≤ 0.25
16,IDND,≤ 0.25
17,GWMI,≤ 0.25
18,TGMT,3.1
19,RRTE,≤ 0.25
20,MGNK,≤ 0.25
21,VYIC,≤ 0.25
22,QFCS,≤ 0.25
23,GTRM,≤ 0.25
24,CPCI,≤ 0.25
25,HKLI,≤ 0.25
26,NPLE,≤ 0.25

row,Variant,enrichment ratio
1,QLTA,3.23
2,KFHP,≤ 0.25
3,SEEV,1.98
4,WFCL,≤ 0.25
5,VHFK,≤ 0.25
6,SRMD,≤ 0.25
7,RVAI,≤ 0.25
8,MAKF,≤ 0.25
9,MRSW,≤ 0.25
10,DHLN,≤ 0.25
11,EGKM,≤ 0.25
12,FFVH,≤ 0.25
13,LCRA,≤ 0.25
14,DDYF,≤ 0.25
15,MNML,24.9
16,GCDR,≤ 0.25
17,QVER,≤ 0.25
18,NWMK,≤ 0.25
19,PFLT,≤ 0.25
20,CLSL,6.34
21,ASCP,≤ 0.25
22,NYRN,≤ 0.25
23,EAMS,≤ 0.25
24,PAYL,≤ 0.25
25,ANPF,≤ 0.25
26,PPVM,≤ 0.25

row,Variant,enrichment ratio
1,YQHY,≤ 0.25
2,IQPI,≤ 0.25
3,SGFD,≤ 0.25
4,WPDK,≤ 0.25
5,VKKP,≤ 0.25
6,SKVR,≤ 0.25
7,EVCT,≤ 0.25
8,NYTM,≤ 0.25
9,IILM,0.265
10,LVFH,≤ 0.25
11,FRIF,≤ 0.25
12,PKFH,≤ 0.25
13,TYNQ,6.02
14,PRIR,≤ 0.25
15,NEKH,≤ 0.25
16,MLFF,≤ 0.25
17,WTMR,≤ 0.25
18,WAEP,≤ 0.25
19,EVSM,7.73
20,MYRK,≤ 0.25
21,WMMP,≤ 0.25
22,NFAY,≤ 0.25
23,EDQE,≤ 0.25
24,QKNF,≤ 0.25
25,QEYI,13.9
26,KARP,≤ 0.25

row,Variant,enrichment ratio
1,QTAC,≤ 0.25
2,TIER,1.58
3,HSNH,≤ 0.25
4,SVHH,≤ 0.25
5,RIKW,≤ 0.25
6,WNHD,≤ 0.25
7,RKSN,≤ 0.25
8,PFEM,≤ 0.25
9,RWIT,≤ 0.25
10,QEMP,≤ 0.25
11,NVIT,≤ 0.25
12,NAPS,≤ 0.25
13,MPQS,≤ 0.25
14,NIAS,≤ 0.25
15,MPSK,≤ 0.25
16,IMIM,≤ 0.25
17,NFIK,≤ 0.25
18,DTHA,≤ 0.25
19,PYML,≤ 0.25
20,RAHF,≤ 0.25
21,QCRA,≤ 0.25
22,INHH,≤ 0.25
23,NTHT,≤ 0.25
24,MFTG,≤ 0.25
25,ILNV,≤ 0.25
26,YWCH,≤ 0.25

row,Variant,enrichment ratio
1,GVML,13.4
2,GWTK,≤ 0.25
3,KDLS,≤ 0.25
4,MKFD,≤ 0.25
5,LGRW,≤ 0.25
6,NVGR,≤ 0.25
7,WIKS,≤ 0.25
8,QNVH,≤ 0.25
9,FKRE,≤ 0.25
10,KCEF,≤ 0.25
11,SMHH,≤ 0.25
12,PVND,≤ 0.25
13,NFGS,≤ 0.25
14,MNMF,≤ 0.25
15,IKII,≤ 0.25
16,LMGL,≤ 0.25
17,PAWC,≤ 0.25
18,VCQF,≤ 0.25
19,EMAW,≤ 0.25
20,SLCE,4.84
21,RRRI,≤ 0.25
22,FMWS,≤ 0.25
23,RDCF,≤ 0.25
